Laboratory results taken from publication PMC4336329 (PLoS ONE, 2015).
The whole screen tested about 310,000 compounds, of which about 2,200 (0.71%) showed an effect of 50% or more. Effects have a minus sign here. Some of the results follow.

Biological target: human ether-à-go-go-related gene (hERG) potassium channel (human, UniProt Q12809)
Test: primary screen, population patch clamp on CHO cells stably expressing hERG

human ether-à-go-go-related gene (hERG) potassium channel, sequence (Q12809 whole entry, looked up): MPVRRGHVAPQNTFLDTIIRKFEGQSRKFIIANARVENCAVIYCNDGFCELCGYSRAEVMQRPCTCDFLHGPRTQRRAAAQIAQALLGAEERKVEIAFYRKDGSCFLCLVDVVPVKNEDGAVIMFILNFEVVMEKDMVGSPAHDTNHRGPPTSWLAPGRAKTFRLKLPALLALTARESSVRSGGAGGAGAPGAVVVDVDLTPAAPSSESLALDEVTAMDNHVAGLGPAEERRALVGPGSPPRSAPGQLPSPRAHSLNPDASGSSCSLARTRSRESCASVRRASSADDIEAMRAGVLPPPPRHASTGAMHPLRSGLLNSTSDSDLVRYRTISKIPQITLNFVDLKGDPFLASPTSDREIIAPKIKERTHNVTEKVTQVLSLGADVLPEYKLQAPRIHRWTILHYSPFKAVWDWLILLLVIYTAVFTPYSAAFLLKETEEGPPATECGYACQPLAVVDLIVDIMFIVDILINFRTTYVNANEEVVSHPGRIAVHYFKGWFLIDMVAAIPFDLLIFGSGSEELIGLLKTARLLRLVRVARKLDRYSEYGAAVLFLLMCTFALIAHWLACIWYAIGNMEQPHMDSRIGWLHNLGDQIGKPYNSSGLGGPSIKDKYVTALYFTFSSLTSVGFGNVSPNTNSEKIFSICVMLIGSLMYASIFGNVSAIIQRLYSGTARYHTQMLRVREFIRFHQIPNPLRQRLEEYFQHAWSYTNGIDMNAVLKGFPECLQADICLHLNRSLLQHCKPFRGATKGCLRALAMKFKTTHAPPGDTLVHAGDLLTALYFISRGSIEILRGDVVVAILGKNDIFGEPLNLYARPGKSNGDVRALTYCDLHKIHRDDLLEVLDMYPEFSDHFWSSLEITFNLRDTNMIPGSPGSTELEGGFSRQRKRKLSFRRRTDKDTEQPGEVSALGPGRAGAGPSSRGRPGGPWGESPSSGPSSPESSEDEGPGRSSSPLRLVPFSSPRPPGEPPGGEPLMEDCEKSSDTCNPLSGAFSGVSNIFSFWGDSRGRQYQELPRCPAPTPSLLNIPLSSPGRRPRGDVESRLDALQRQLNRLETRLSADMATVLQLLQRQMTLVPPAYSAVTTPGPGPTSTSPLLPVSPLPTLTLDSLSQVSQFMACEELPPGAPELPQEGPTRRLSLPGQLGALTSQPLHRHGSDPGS

Row | Structure (SMILES) | hERG current change (%, negative = inhibition) at 1uM [%]
1 | CC(C)NC(=O)c1ccc(OC2CSC2)cc1 | -0.511
2 | Cc1ccc(NC(=O)Nc2cc(S(C)(=O)=O)ccc2Cl)cc1 | 4.51
3 | COc1ccc(CC(=O)Nc2ccc(N3CCCC3)c(C)c2)cc1 | 5.59
4 | O=C(OCC(=O)c1ccc[nH]1)C1=COCCO1 | 9.49
5 | CCC(CC)c1nnc(NC(=O)C2CC(=O)N(CCc3ccc(OC)c(OC)c3)C2)s1 (centres unmarked) | 14
6 | Cc1c(C(=O)OC2CCCC2)[nH]c2c1C(=O)CC(c1ccco1)C2 (centres unmarked) | 9.19
7 | CCc1cccc2c(C(=O)COC(=O)c3nccnc3N)c[nH]c12 | 10.6
8 | O=C(NCCO)c1cc2cc(Cl)cc(Cl)c2oc1=O | 7.81
9 | C/C(=N\NC(=O)c1nn(C)cc1Br)c1cccc(NC(=O)c2ccncc2)c1 | 2.06
10 | CCCSc1nnc(Sc2nnnn2-c2ccccc2)s1 | 8.69
11 | CCCOC(=O)Nc1ccc(C(N)=O)cc1 | 6.35
12 | CC(C)(Oc1ccc(Cl)cc1)C(=O)NCc1ccco1 | 7.06
13 | COc1cc(NC(=O)c2cc(-c3cccnc3)nc3ccc(C)cc23)c(OC)cc1Cl | 4.34
14 | CCC(C)NC(=O)C1CCN(C(=O)N(C)C)CC1 (centres unmarked) | 10.2
15 | O=C(c1ccco1)N1CCN(C(=O)c2ccc(CS(=O)c3ccc(F)cc3)o2)CC1 (centres unmarked) | 27.6
16 | Cc1nc(S(=O)(=O)NC2CCCCC2)c(C#N)c(C)c1Cl | 8.4
17 | COC(=O)CCCC(=O)N1CCCC(C(=O)c2ccccc2SC)C1 (centres unmarked) | 9.77
18 | Cc1ccc(NC(=O)CN(C)CC(=O)Nc2ccc(N3CCOCC3)cc2)c(C)c1 | -7.52
19 | COC(=O)Cc1[nH]n(-c2nc3ccccc3s2)c(=O)c1C(C)=O | 18
20 | CC1CN(C(=S)NC(=O)c2ccco2)CC(C)O1 (centres unmarked) | 14.1
21 | CC(=O)SC(C)CC(=O)Nc1ccccc1 (centres unmarked) | 9.16
22 | COc1ccc(N2CCN(C(CNC(=O)C(=O)NCCCn3ccnc3)c3cccnc3)CC2)cc1 (centres unmarked) | -8.9
23 | CCOC(=O)C1(CCOc2ccccc2)CCN(C(=O)c2cncs2)CC1 | -27.4

Row | Structure (SMILES) | hERG current change (%, negative = inhibition) at 1uM [%]
24 | Cc1nc(SCC(=O)Nc2ccccc2C(F)(F)F)c2c(=O)n(C)c(=O)n(C)c2n1 | 2.91
25 | Cc1cc(C(=O)CSc2n[nH]c(N)n2)c(C)n1-c1ccccc1 | -6.71
26 | Clc1ccc2nc(N3CCCCC3)[nH]c2c1 | -8.79
27 | CC(C)OC(=O)c1c2nc3ccccc3nc2n2c1[nH]c(=O)c1ccccc12 | 3.77
28 | O=c1cc(Nc2ccc3c(c2)OCCO3)[nH]c(=O)n1-c1ccc(Cl)cc1 | 2.19
29 | O=C(c1ccc(F)cc1)C1CCN(Cc2ccc(F)cc2)CC1 | 2.51
30 | CC(C)N1CCC(N2CCN(C/C=C/c3ccc(F)cc3)CC2CCO)CC1 (centres unmarked) | 9.87
31 | CCOc1ccc(NC(=O)CSc2nc3ccccc3nc2N2CCCC2)cc1 | -19.7
32 | Cc1ccc(-c2nnc(N(C)C(=O)c3cccnc3)s2)cc1 | 2.19
33 | CC(c1ccccc1)N1CCn2c(nc3cc(NC(=O)NC4CCCCC4)ccc32)C1 (centres unmarked) | 2.78
34 | COc1ccc(NC(=O)CC2Sc3ncnn3C2=O)cc1 (centres unmarked) | 15.5
35 | COc1ccc(N2CCN(C(=O)COC(=O)/C=C/c3ccc(C(F)(F)F)cc3)CC2)cc1 | 2.77
36 | C/C(=N\NC(=O)c1cc(-c2ccco2)nc2ccccc12)c1cccnc1 | 6.05
37 | c1cc(OCCCN2CCCCC2)ccc1CN1CCCCC1 | 15
38 | CC(=O)c1c(C)[nH]c(C(=O)OCc2nc3ccsc3c(=O)[nH]2)c1C | 7.68
39 | CC1CCCN(S(=O)(=O)c2ccc(C(=O)Nc3nnc(-c4ccco4)o3)cc2)C1 (centres unmarked) | -1.68
40 | O=c1c2oc3ccccc3c2ncn1Cc1ccc(F)cc1 | 8.79
41 | Cc1c(Cc2ccccc2)c(=O)oc2cc(OCc3nn[nH]n3)ccc12 | -2.28
42 | O=C(O)C(Cc1c[nH]c2ccccc12)N1CCS(=O)(=O)CC1 (centres unmarked) | 13.1
43 | COc1ccc(C(=O)NNC(=O)CSc2nnc(-c3ccc(O)cc3)n2C)cc1 | -2.9
44 | COc1ccc(CCNC(=O)c2cc(-c3ccco3)nc3ccccc23)cc1 | 13.7
45 | Cn1c(=O)n(C)c2cc(S(=O)(=O)NCc3ccco3)ccc21 | 9.92
46 | O.c1ccc(-c2cc(-c3nc4ccccc4[nH]3)c3ccccc3n2)cc1 | 10.5

Row | Structure (SMILES) | hERG current change (%, negative = inhibition) at 1uM [%]
47 | O=C(Nc1ccc(F)cc1)c1ccc(CSc2ccc(Cl)cc2)o1 | 14.4
48 | O=C(Nc1ccccc1)/C(=C/c1ccc(O)cc1)NC(=O)c1ccco1 | 9.16
49 | Cc1ccc(NC(=O)CSc2nnc(-c3ccccc3Br)o2)cc1C | -8.36
50 | O=C(Nc1ccccc1)c1cc(S(=O)(=O)N2CCCCC2)ccc1N1CCOCC1 | 12.6
51 | c1ccc(CN2CCN(Cc3ccc4c(c3)OCCO4)CC2)cc1 | 3.09
52 | CCN(c1ccc(OCC(=O)OCC(=O)c2c(N)n(C)c(=O)n(C)c2=O)cc1)S(=O)(=O)c1ccccc1 | 13.3
53 | CC(O)c1nc2ccccc2n1CCCc1ccccc1 (centres unmarked) | 5.62
54 | COc1ccccc1NC(=S)N(Cc1ccco1)Cc1cc2cc(C)cc(C)c2[nH]c1=O | 2.7
55 | COC(=O)C1C(c2ccccc2)C=CC(c2ccccc2)C1C(=O)O (centres unmarked) | 9.5
56 | CN(C)S(=O)(=O)N1CCC(C(=O)O)(c2ccccc2)CC1 | 19.8
57 | O=C(Cn1cncn1)NCc1cccc2ccccc12 | 5.67
58 | c1ccc2cc(CCCc3cc4ccccc4cn3)ncc2c1 | 4.58
59 | CCN(CC)C(=O)/C(=C/c1ccc2c(c1)OCO2)NC(=O)c1ccc(Br)cc1 | -18.9
60 | Cc1c(Cl)cccc1NC(=S)N(CCCN1CCOCC1)Cc1cccs1 | 4.82
61 | CCOC(=O)c1c(N)n(-c2ccc(N)cc2)c2nc3ccccc3nc12 | -6.28
62 | CCCCCOC(=O)C1=C(C)NC(=O)NC1c1ccc(OC)cc1 (centres unmarked) | 9.02
63 | O=C(O)C(=O)O.c1ccc(COc2ccc(OCCN3CCCCC3)cc2)cc1 | -27.7
64 | O=C(CCS(=O)(=O)c1ccccc1)Nc1cccc(-c2nc3ccccc3s2)c1 | 7.34
65 | COc1ccc(/C=C2\SC(=O)N(CCNC(=O)Cn3cnnn3)C2=O)cc1 | 6.04
66 | COc1ccc(Cc2noc(CN(C)CCN3CCc4ccccc4C3)n2)cc1OC | 8.8
67 | CN(C(=O)c1cc(COc2ccc(F)c(F)c2)on1)C1CCOC1 (centres unmarked) | 7.42
68 | [O-]c1n[n+](-c2ccc(Cl)cc2Cl)cc2ccccc12 | 5.72
69 | CSc1nc(-c2ccco2)nn1S(C)(=O)=O | 16

Row | Structure (SMILES) | hERG current change (%, negative = inhibition) at 1uM [%]
70 | CCOc1cc(S(=O)(=O)N(CC)CC)ccc1Cl | 8.96
71 | O=c1[nH]c(CSc2nc(-c3ccc(F)cc3)cs2)nc2ccccc12 | 5.61
72 | O=C(CN1CCCC1)Nc1ccc(F)c(Cl)c1.O=C(O)C(=O)O | 13.8
73 | c1ccc(CSCc2cn3ccsc3n2)cc1 | 0.534
74 | COc1ccc(OC)c(S(=O)(=O)Oc2ccc(N)c3ccccc23)c1 | 14.6
75 | COc1ccccc1NS(=O)(=O)c1cc(NC(=O)Nc2ccccc2)ccc1N1CCCCC1 | 1.32
76 | CS(=O)(=O)N1CCN(c2ccccc2NC(=O)c2ccc(-c3ccc(Cl)cc3Cl)o2)CC1 | 11.4
77 | CC(=O)Nc1ccc(N2CCOCC2)c(C(=O)Nc2cccc(C)c2)c1 | -6.81
78 | Cc1c(C(C)(C)C)sc(=NC(=O)c2ccccc2O)n1C | 15.1
79 | COc1ccc(-c2nnc(NC(=O)CS(=O)(=O)c3ccc(Cl)cc3)o2)c(OC)c1 | 21.4
80 | O=C1[C@H]2[C@@H](c3ccc(F)cc3)N3C(=O)N(c4cccc(F)c4)C(=O)[C@@]3(Cc3ccc(Cl)cc3)[C@H]2C(=O)N1C1CCCCC1 | 11.3
81 | CCOC(=O)CSc1nc(C)c(C(C)=O)cc1C(N)=O | 16.8
82 | CCCC(C(=O)NCCc1ccc(S(N)(=O)=O)cc1)c1ccccc1 (centres unmarked) | 16.4
83 | Cc1cc(OCC(C)C)ccc1/C(O)=C1/C(=O)C(=O)N(Cc2cccnc2)C1c1ccncc1 (centres unmarked) | 8.11
84 | COC(=O)CCC(=O)Nc1cccc2c(NC(=O)CCC(=O)OC)cccc12 | 24.1
85 | Cc1ccc(C(=O)NC2CCCCC2)cc1 | 12.3
86 | CC1=NN(c2ccccc2)C(=O)C1C(=O)c1ccccc1 (centres unmarked) | 0.341
87 | Cc1cc(C)c2c(N)c(C(=O)N3CCN(c4ncccn4)CC3)sc2n1 | 7.54
88 | CCOc1ccc(NC(=O)CN2CCN(CC(=O)c3ccc(OC)c(OC)c3)CC2)cc1 | -56.3
89 | Cc1nc(Cl)sc1C(=O)Nc1ccccc1 | 14.7
